Measured values taken from the supplement of paper PMC8728848.
Some of the results follow.

What was measured:
Assay in all cases: glycan array binding signal (z-score within array); higher = stronger binding
Conditions in all cases: glycan notation: IUPAC condensed, linker removed
[1] = target: Fuc(a1-3)[Gal(b1-4)]GlcNAc(b1-2)Man(a1-3)[Fuc(a1-3)[Gal(b1-4)]GlcNAc(b1-2)Man(a1-6)]Man(b1-4)GlcNAc(b1-4)[Fuc(a1-6)]GlcNAc
Summary of the method: (§1)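 Negative Z-scores can be read as non-binding. The Z-score is calculated within each array and then averaged across arrays of one protein sequence at different concentrations or buffers and across linkers. Arrays, 3228 in all, were curated from the Consortium for Functional Glycomics database and kept only where the protein sequence was available.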

[2] = target: Fuc(a1-3)[Gal(b1-4)]GlcNAc(b1-3)Gal(b1-3)[Fuc(a1-4)]GlcNAc
Summary of the method: as §1

[3] = target: Fuc(a1-3)[Gal(b1-4)]GlcNAc(b1-3)GalNAc
Summary of the method: as §1

[4] = target: Fuc(a1-3)[Gal(b1-4)]GlcNAc(b1-4)Gal(b1-4)[Fuc(a1-3)]GlcNAc
Summary of the method: as §1

[5] = target: Fuc(a1-3)[Gal(b1-4)]GlcNAc(b1-4)Gal(b1-4)[Fuc(a1-3)]GlcNAc(b1-4)Gal(b1-4)[Fuc(a1-3)]GlcNAc
Summary of the method: as §1

[6] = target: Fuc(a1-3)[Gal(b1-4)]GlcNAc(b1-6)GalNAc
Summary of the method: as §1

[7] = target: Fuc(a1-3)[Gal(b1-4)]GlcNAc(b1-6)[Gal(b1-3)GlcNAc(b1-3)]Gal(b1-4)Glc
Summary of the method: as §1

[8] = target: Fuc(a1-3)[Gal(b1-4)]GlcNAc(b1-6)[Neu5Ac(a2-3)Gal(b1-3)]GalNAc
Summary of the method: as §1

[9] = target: Fuc(a1-3)[Gal(b1-4)]GlcNAc6S
Summary of the method: as §1

[10] = target: Fuc(a1-3)[Gal3S(b1-4)]GlcNAc
Summary of the method: as §1

[11] = target: Fuc(a1-3)[Gal3S(b1-4)]GlcNAc6S
Summary of the method: as §1

[12] = target: Fuc(a1-3)[GalNAc(b1-4)]GlcNAc
Summary of the method: as §1

Fuc(a1-4)GlcNAc = target: Fuc(a1-4)GlcNAc
Summary of the method: as §1

Fuc(b1-3)GlcNAc = target: Fuc(b1-3)GlcNAc
Summary of the method: as §1

Gal(a1-2)Gal = target: Gal(a1-2)Gal
Summary of the method: as §1

Gal(a1-3)Gal = target: Gal(a1-3)Gal
Summary of the method: as §1

Gal(a1-3)Gal(b1-3)GlcNAc = target: Gal(a1-3)Gal(b1-3)GlcNAc
Summary of the method: as §1

[13] = target: Gal(a1-3)Gal(b1-3)GlcNAc(b1-2)Man(a1-3)[Gal(a1-3)Gal(b1-3)GlcNAc(b1-2)Man(a1-6)]Man(b1-4)GlcNAc(b1-4)GlcNAc
Summary of the method: as §1

[14] = target: Gal(a1-3)Gal(b1-3)GlcNAc(b1-3)GalNAc
Summary of the method: as §1

[15] = target: Gal(a1-3)Gal(b1-3)[Fuc(a1-4)]GlcNAc(b1-2)Man(a1-3)[Gal(a1-3)Gal(b1-3)[Fuc(a1-4)]GlcNAc(b1-2)Man(a1-6)]Man(b1-4)GlcNAc(b1-4)GlcNAc
Summary of the method: as §1

Gal(a1-3)Gal(b1-4)Glc = target: Gal(a1-3)Gal(b1-4)Glc
Summary of the method: as §1

Gal(a1-3)Gal(b1-4)GlcNAc = target: Gal(a1-3)Gal(b1-4)GlcNAc
Summary of the method: as §1

[16] = target: Gal(a1-3)Gal(b1-4)GlcNAc(b1-3)GalNAc
Summary of the method: as §1

[17] = target: Gal(a1-3)Gal(b1-4)[Fuc(a1-3)]GlcNAc
Summary of the method: as §1

[18] = target: Gal(a1-3)Gal(b1-4)[Fuc(a1-3)]GlcNAc(b1-2)Man(a1-3)[Gal(a1-3)Gal(b1-4)[Fuc(a1-3)]GlcNAc(b1-2)Man(a1-6)]Man(b1-4)GlcNAc(b1-4)GlcNAc
Summary of the method: as §1

Gal(a1-3)GalNAc = target: Gal(a1-3)GalNAc
Summary of the method: as §1

[19] = target: Gal(a1-3)[Gal(a1-4)]Gal(b1-4)GlcNAc
Summary of the method: as §1

[20] = target: Gal(a1-4)Gal(b1-3)GlcNAc(b1-2)Man(a1-3)[Gal(a1-4)Gal(b1-3)GlcNAc(b1-2)Man(a1-6)]Man(b1-4)GlcNAc(b1-4)GlcNAc
Summary of the method: as §1

Gal(a1-4)Gal(b1-4)Glc = target: Gal(a1-4)Gal(b1-4)Glc
Summary of the method: as §1

Gal(a1-4)Gal(b1-4)GlcNAc = target: Gal(a1-4)Gal(b1-4)GlcNAc
Summary of the method: as §1

[21] = target: Gal(a1-4)Gal(b1-4)GlcNAc(b1-2)Man(a1-3)[Gal(a1-4)Gal(b1-4)GlcNAc(b1-2)Man(a1-6)]Man(b1-4)GlcNAc(b1-4)GlcNAc
Summary of the method: as §1

[22] = target: Gal(a1-4)Gal(b1-4)GlcNAc(b1-3)Gal(b1-4)Glc
Summary of the method: as §1

Gal(a1-4)GlcNAc = target: Gal(a1-4)GlcNAc
Summary of the method: as §1

Gal(a1-6)Glc = target: Gal(a1-6)Glc
Summary of the method: as §1

Gal(b1-2)Gal = target: Gal(b1-2)Gal
Summary of the method: as §1

Gal(b1-3)Gal = target: Gal(b1-3)Gal
Summary of the method: as §1

Gal(b1-3)Gal(b1-4)GlcNAc = target: Gal(b1-3)Gal(b1-4)GlcNAc
Summary of the method: as §1

[23] = target: Gal(b1-3)Gal(b1-4)GlcNAc(b1-2)Man(a1-3)[Gal(b1-3)Gal(b1-4)GlcNAc(b1-2)Man(a1-6)]Man(b1-4)GlcNAc(b1-4)GlcNAc
Summary of the method: as §1

Gal(b1-3)GalNAc = target: Gal(b1-3)GalNAc
Summary of the method: as §1

[24] = target: Gal(b1-3)GalNAc(a1-3)[Fuc(a1-2)]Gal(b1-4)Glc
Summary of the method: as §1

[25] = target: Gal(b1-3)GalNAc(a1-3)[Fuc(a1-2)]Gal(b1-4)GlcNAc
Summary of the method: as §1

[26] = target: Gal(b1-3)GalNAc(b1-3)Gal(a1-4)Gal(b1-4)Glc
Summary of the method: as §1

[27] = target: Gal(b1-3)GalNAc(b1-4)Gal(b1-4)Glc
Summary of the method: as §1

[28] = target: Gal(b1-3)GalNAc(b1-4)[Neu5Ac(a2-3)]Gal(b1-4)Glc
Summary of the method: as §1

Gal(b1-3)GlcNAc = target: Gal(b1-3)GlcNAc
Summary of the method: as §1

B1: Eosinophil cationic protein (ECP) (Homo sapiens), P12724 (protein)
chain: MVPKLFTSQICLLLLLGLMGVEGSLHARPPQFTRAQWFAIQHISLNPPRCTIAMRAINNYRWRCKNQNTFLRTTFANVVNVCGNQSIRCPHNRTLNNCHRSRFRVPLLHCDLINPGAQNISNCTYADRPGRRFYVVACDNRDPRDSPRYPVVPVHLDTTI
[1]
  glycan array binding signal (z-score): -0.227
[2]
  glycan array binding signal (z-score): -0.263
[3]
  glycan array binding signal (z-score): 0.621
[4]
  glycan array binding signal (z-score): 0.111
[5]
  glycan array binding signal (z-score): -0.066
[6]
  glycan array binding signal (z-score): 2.25
[7]
  glycan array binding signal (z-score): -0.352
[8]
  glycan array binding signal (z-score): 0.52
[9]
  glycan array binding signal (z-score): 0.08
[10]
  glycan array binding signal (z-score): 0.329
[11]
  glycan array binding signal (z-score): 0.732
[12]
  glycan array binding signal (z-score): -0.183
Fuc(a1-4)GlcNAc
  glycan array binding signal (z-score): 0.072
Fuc(b1-3)GlcNAc
  glycan array binding signal (z-score): -0.109
Gal(a1-2)Gal
  glycan array binding signal (z-score): -0.197
Gal(a1-3)Gal
  glycan array binding signal (z-score): -0.598
Gal(a1-3)Gal(b1-3)GlcNAc
  glycan array binding signal (z-score): -0.239
[13]
  glycan array binding signal (z-score): 1.32
[14]
  glycan array binding signal (z-score): -0.172
[15]
  glycan array binding signal (z-score): -0.345
Gal(a1-3)Gal(b1-4)Glc
  glycan array binding signal (z-score): -0.116
Gal(a1-3)Gal(b1-4)GlcNAc
  glycan array binding signal (z-score): 0.117
[16]
  glycan array binding signal (z-score): -0.495
[17]
  glycan array binding signal (z-score): -0.346
[18]
  glycan array binding signal (z-score): 2.23
Gal(a1-3)GalNAc
  glycan array binding signal (z-score): -0.078
[19]
  glycan array binding signal (z-score): -0.503
[20]
  glycan array binding signal (z-score): -0.14
Gal(a1-4)Gal(b1-4)Glc
  glycan array binding signal (z-score): -0.102
Gal(a1-4)Gal(b1-4)GlcNAc
  glycan array binding signal (z-score): -0.306
[21]
  glycan array binding signal (z-score): 0.094
[22]
  glycan array binding signal (z-score): 0.055
Gal(a1-4)GlcNAc
  glycan array binding signal (z-score): -0.254
Gal(a1-6)Glc
  glycan array binding signal (z-score): 0.751
Gal(b1-2)Gal
  glycan array binding signal (z-score): -0.424
Gal(b1-3)Gal
  glycan array binding signal (z-score): 0.296
Gal(b1-3)Gal(b1-4)GlcNAc
  glycan array binding signal (z-score): -0.344
[23]
  glycan array binding signal (z-score): -0.135
Gal(b1-3)GalNAc
  glycan array binding signal (z-score): -0.081
[24]
  glycan array binding signal (z-score): 0.07
[25]
  glycan array binding signal (z-score): -0.397
[26]
  glycan array binding signal (z-score): -0.334
[27]
  glycan array binding signal (z-score): -0.077
[28]
  glycan array binding signal (z-score): -0.191
Gal(b1-3)GlcNAc
  glycan array binding signal (z-score): -0.185
